# This is one part of the list. At the low end of the ranking the order means little.
# Target: GST-SBP-SLBP (stem-loop binding protein) (UniProt Q14493)
# Assay: targeted RNA Bind-n-Seq;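 also: DESeq read counts versus GST-SBP nonspecific binding control pulldown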
# Settings: RBNS binding buffer: 25 mM Tris pH 7.5, 150 mM KCl, 3 mM MgCl2, 0.1% Tween, 0.5 mg/mL BSA, 1 mM DTT; 27 nM protein, 750 pM RNA pool; temperature not stated; high values mean tight binding
row,Sequence,binding signal (log2 fold change)
1,GGUCACGUCUCAAUCAACUCAAUCUCAGGAGUUUUCUCCUGCAAUUUCAACAGCUCGCAGUCAAG,0.0278
2,GGUCACGUCUCAAUCAACUCAAUCUCAGGAGUUUACUCCUGCUUAUUCAACAGCUCGCAGUCAAG,-0.0997
3,GGUCACGUCUCAAUCAACUCUUCCUCAGGAGUUUCCUCCUGUAAACUCAACAGCUCGCAGUCAAG,0.02
4,GGUCACGUCUCAAUCAACUCUUCUUCAGGAGUUUACUCCUGCAUUUUCAACAGCUCGCAGUCAAG,-0.033
5,GGUCACGUCUCAAUCAACUCAUCGUCAGGAGUUUGCUCCUGCAUAUUCAACAGCUCGCAGUCAAG,0.258
6,GGUCACGUCUCAAUCAACUCAUUAGAGGGGGGGAAAACCCCUUUACCCUCAAAAUCAACAGCUCGCAGUCAAG,-0.0707
7,GGUCACGUCUCAAUCAACUCAUCUUCAGGAGUUUCCUCCUGUAAUUUCAACAGCUCGCAGUCAAG,0.0148
8,GGUCACGUCUCAAUCAACUCUUCCUCCAGGGAAAGCCCUGGCUUUCUCAACAGCUCGCAGUCAAG,0.137
9,GGUCACGUCUCAAUCAACUCUACUUCCAGGGAAAACCCUGGCUUAUUCAACAGCUCGCAGUCAAG,-0.0575
10,GGUCACGUCUCAAUCAACUCUACAGAGGGGGGGAAAACCCCUUUACCCUCACUCUCAACAGCUCGCAGUCAAG,0.332
11,GGUCACGUCUCAAUCAACUCAGUCUCCAGGGAAAUCCCUGGCUAUCUCAACAGCUCGCAGUCAAG,-0.087
12,GGUCACGUCUCAAUCAACUCAUCUCCCAGGGAAAUCCCUGGCUAAUUCAACAGCUCGCAGUCAAG,0.157
13,GGUCACGUCUCAAUCAACUCAACUUCAGGAGUUUUCUCCUGCUUACUCAACAGCUCGCAGUCAAG,0.0374
14,GGUCACGUCUCAAUCAACUCUCACGAGGGGGGGAAAACCCCUUUGCCCUCAACAUCAACAGCUCGCAGUCAAG,-0.1
15,GGUCACGUCUCAAUCAACUCAACUUCCAGGGAAACCCCUGGCUUUCUCAACAGCUCGCAGUCAAG,-0.0924
16,GGUCACGUCUCAAUCAACUCUUCUCCCAGGGAAAUCCCUGGCUAAUUCAACAGCUCGCAGUCAAG,0.0702
17,GGUCACGUCUCAAUCAACUCUUCUCCCAGGGAAAUCCCUGGUUUUCUCAACAGCUCGCAGUCAAG,-0.0216
18,GGUCACGUCUCAAUCAACUCAAUUUCCAGGGAAACCCCUGGCUAACUCAACAGCUCGCAGUCAAG,-0.0681
19,GGUCACGUCUCAAUCAACUCUUCUUCCAGGGAAACCCCUGGCAAUUUCAACAGCUCGCAGUCAAG,0.0173
20,GGUCACGUCUCAAUCAACUCUCUAGAGGGGGGGAAAACCCCUUUGCCCUCAAUCUCAACAGCUCGCAGUCAAG,-0.0129
21,GGUCACGUCUCAAUCAACUCAUCUUCCAGGGAAACCCCUGGUAAACUCAACAGCUCGCAGUCAAG,-0.0245
22,GGUCACGUCUCAAUCAACUCUUUCCCCAGGGAAAACCCUGGCAAUUUCAACAGCUCGCAGUCAAG,0.0423
23,GGUCACGUCUCAAUCAACUCUUCUCCCAGGGAAAUCCCUGGCAUACUCAACAGCUCGCAGUCAAG,-0.16
24,GGUCACGUCUCAAUCAACUCAGUCCCAGGAGUUUGCUCCUGCUUUCUCAACAGCUCGCAGUCAAG,-0.217

row,Sequence,binding signal (log2 fold change)
1,GGUCACGUCUCAAUCAACUCUAGUCCAGGAGUUUUCUCCUGUUUUCUCAACAGCUCGCAGUCAAG,-0.0871
2,GGUCACGUCUCAAUCAACUCACAAGAGGGGGGGAAAACCCCUUUACCCUCCUACUCAACAGCUCGCAGUCAAG,-0.0725
3,GGUCACGUCUCAAUCAACUCUUCCCCCAGGGAAAUCCCUGGUAAACUCAACAGCUCGCAGUCAAG,-0.0244
4,GGUCACGUCUCAAUCAACUCCAUAGAGGGGGGGAAAACCCCUUUGCCCUCACUUUCAACAGCUCGCAGUCAAG,-0.107
5,GGUCACGUCUCAAUCAACUCAACUCCCAGGGAAACCCCUGGUAAAUUCAACAGCUCGCAGUCAAG,0.307
6,GGUCACGUCUCAAUCAACUCAUUCUCCAGGGAAAGCCCUGGCUAAUUCAACAGCUCGCAGUCAAG,-0.0647
7,GGUCACGUCUCAAUCAACUCAUCUCCCAGGGAAACCCCUGGCUAAUUCAACAGCUCGCAGUCAAG,-0.0708
8,GGUCACGUCUCAAUCAACUCAUACGAGGGGGGGAAAACCCCUUUGCCCUCAUUAUCAACAGCUCGCAGUCAAG,-0.421
9,GGUCACGUCUCAAUCAACUCAAAAGAGGGGGGGAAAACCCCUUUGCCCUCAAAAUCAACAGCUCGCAGUCAAG,-0.113
10,GGUCACGUCUCAAUCAACUCUAUCUCAGGAGUUUCCUCCUGUAAUUUCAACAGCUCGCAGUCAAG,0.21
11,GGUCACGUCUCAAUCAACUCCCAAGAGGGGGGGAAAACCCCUUUGCCCUCGUAAUCAACAGCUCGCAGUCAAG,0.27
12,GGUCACGUCUCAAUCAACUCAAACGAGGGGGGGAAAACCCCUUUACCCUCAAUAUCAACAGCUCGCAGUCAAG,-0.192
13,GGUCACGUCUCAAUCAACUCUAUCCCCAGGGAAAACCCUGGCUUUUUCAACAGCUCGCAGUCAAG,-0.0301
14,GGUCACGUCUCAAUCAACUCAUUCCCCAGGGAAAACCCUGGCAUACUCAACAGCUCGCAGUCAAG,-0.117
15,GGUCACGUCUCAAUCAACUCUUUCGCAGGAGUUUACUCCUGGUUUCUCAACAGCUCGCAGUCAAG,-0.00289
16,GGUCACGUCUCAAUCAACUCCUCAGAGGGGGGGAAAACCCCUUUACCCUCGUAUUCAACAGCUCGCAGUCAAG,-0.124
17,GGUCACGUCUCAAUCAACUCAAUUUCCAGGGAAAACCCUGGCUUAUUCAACAGCUCGCAGUCAAG,0.0437
18,GGUCACGUCUCAAUCAACUCCUUCGAGGGGGGGAAAACCCCUUUACCCUCACCUUCAACAGCUCGCAGUCAAG,0.36
19,GGUCACGUCUCAAUCAACUCAAUCUCAGGAGUUUGCUCCUGUUUACUCAACAGCUCGCAGUCAAG,0.241
20,GGUCACGUCUCAAUCAACUCAUCCCCCAGGGAAACCCCUGGCAAUCUCAACAGCUCGCAGUCAAG,0.113
21,GGUCACGUCUCAAUCAACUCAGUCCCCAGGGAAAUCCCUGGCAAAUUCAACAGCUCGCAGUCAAG,-0.1
22,GGUCACGUCUCAAUCAACUCUUUUUCAGGAGUUUUCUCCUGCUUUGUCAACAGCUCGCAGUCAAG,-0.0102
23,GGUCACGUCUCAAUCAACUCAUUUUCAGGAGUUUUCUCCUGUUUACUCAACAGCUCGCAGUCAAG,-0.0305
